Laboratory results from a compilation of properties of binary mixtures (doi:10.1016/j.molliq.2018.07.079).
Some of these densities may be calculated back from excess volumes.

Test: xn = mol fraction of the nth substance listed
Settings: 100 kPa

CCCC[n+]1ccn(C)c1.N#C[N-]C#N + CC1COC(=O)O1
mass density (293.15 K, x1 = 0.101): 1179.1 kg/m3 | mass density (293.15 K, x1 = 0.2003): 1157.5 kg/m3 | mass density (293.15 K, x1 = 0.5994): 1097.7 kg/m3 | mass density (293.15 K, x1 = 0.7946): 1078.5 kg/m3 | mass density (293.15 K, x1 = 0.8989): 1069.9 kg/m3 | mass density (298.15 K, x1 = 0.0503): 1186.6 kg/m3 | mass density (298.15 K, x1 = 0.2003): 1153.2 kg/m3 | mass density (298.15 K, x1 = 0.5007): 1105.7 kg/m3 | mass density (298.15 K, x1 = 0.5994): 1094.2 kg/m3 | mass density (298.15 K, x1 = 0.7946): 1074.9 kg/m3 | mass density (298.15 K, x1 = 0.8989): 1066.5 kg/m3 | mass density (303.15 K, x1 = 0.0503): 1181.5 kg/m3 | mass density (303.15 K, x1 = 0.101): 1169.6 kg/m3 | mass density (303.15 K, x1 = 0.2003): 1148.8 kg/m3 | mass density (303.15 K, x1 = 0.2996): 1130.9 kg/m3 | mass density (303.15 K, x1 = 0.5007): 1102 kg/m3 | mass density (303.15 K, x1 = 0.5994): 1090.5 kg/m3 | mass density (308.15 K, x1 = 0.101): 1164.9 kg/m3 | mass density (308.15 K, x1 = 0.2003): 1144.4 kg/m3 | mass density (308.15 K, x1 = 0.5007): 1098.3 kg/m3 | mass density (308.15 K, x1 = 0.5994): 1087 kg/m3 | mass density (308.15 K, x1 = 0.8989): 1060.1 kg/m3 | mass density (313.15 K, x1 = 0.101): 1160.1 kg/m3 | mass density (313.15 K, x1 = 0.2003): 1140.1 kg/m3 | mass density (313.15 K, x1 = 0.2996): 1122.8 kg/m3 | mass density (313.15 K, x1 = 0.5007): 1094.7 kg/m3 | mass density (313.15 K, x1 = 0.7946): 1065.1 kg/m3
